The other results are listed elsewhere or left out.
What was measured:
Assay in all cases: glycan array binding signal (z-score within array); higher = stronger binding
Settings in all cases: glycan notation: IUPAC condensed, linker removed
[1] = biological target: Gal(b1-4)GlcNAc(b1-6)GalNAc
How it was run: (§1)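 Negative Z-scores can be read as non-binding. The Z-score is calculated within each array and then averaged across arrays of one protein sequence at different concentrations or buffers and across linkers. Arrays, 3228 in all, were curated from the Consortium for Functional Glycomics database and kept only where the protein sequence was available.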

[2] = biological target: Gal(b1-4)GlcNAc(b1-6)[Gal(b1-3)]GalNAc
How it was run: as §1

[3] = biological target: Gal(b1-4)GlcNAc(b1-6)[Gal(b1-4)GlcNAc(b1-3)]GalNAc
How it was run: as §1

Gal(b1-4)GlcNAc6P = biological target: Gal(b1-4)GlcNAc6P
How it was run: as §1

Gal(b1-6)Gal = biological target: Gal(b1-6)Gal
How it was run: as §1

Gal3S(b1-3)GalNAc = biological target: Gal3S(b1-3)GalNAc
How it was run: as §1

Gal3S(b1-3)GlcNAc = biological target: Gal3S(b1-3)GlcNAc
How it was run: as §1

[4] = biological target: Gal3S(b1-3)[Fuc(a1-4)]GlcNAc
How it was run: as §1

Gal3S(b1-4)Glc = biological target: Gal3S(b1-4)Glc
How it was run: as §1

Gal3S(b1-4)Glc6S = biological target: Gal3S(b1-4)Glc6S
How it was run: as §1

Gal3S(b1-4)GlcNAc = biological target: Gal3S(b1-4)GlcNAc
How it was run: as §1

[5] = biological target: Gal3S(b1-4)[Fuc(a1-3)]Glc6S
How it was run: as §1

[6] = biological target: Gal3S(b1-4)[Fuc(a1-3)]GlcNAc
How it was run: as §1

[7] = biological target: Gal3S(b1-4)[Fuc(a1-3)]GlcNAc6S
How it was run: as §1

Gal3S4S(b1-4)GlcNAc = biological target: Gal3S4S(b1-4)GlcNAc
How it was run: as §1

Gal3S6S(b1-4)GlcNAc = biological target: Gal3S6S(b1-4)GlcNAc
How it was run: as §1

Gal3S6S(b1-4)GlcNAc6S = biological target: Gal3S6S(b1-4)GlcNAc6S
How it was run: as §1

Gal4S(b1-4)GlcNAc = biological target: Gal4S(b1-4)GlcNAc
How it was run: as §1

Gal4S6S(b1-4)GlcNAc = biological target: Gal4S6S(b1-4)GlcNAc
How it was run: as §1

Gal6P(b1-4)GlcNAc = biological target: Gal6P(b1-4)GlcNAc
How it was run: as §1

Gal6S(b1-3)GlcNAc = biological target: Gal6S(b1-3)GlcNAc
How it was run: as §1

Gal6S(b1-3)GlcNAc6S = biological target: Gal6S(b1-3)GlcNAc6S
How it was run: as §1

Gal6S(b1-4)Glc = biological target: Gal6S(b1-4)Glc
How it was run: as §1

B1: SP8524D-bot-399-27-399 (Bacteroides ovatus) (protein)
chain: DAKYDTLDTHAYIEEALSSTSQKVTVQATGESFTTLNVHLSNLSSTDNHYKLVTDQSVLDTYNHINGTGYIMLPKDYYTLPETITVKAGQYAADALSIALKAFSQEMMKSGESYALPVKLVLQDGSISPMENTGTFVILAESIIEFSAPMFVGAPSLKANKFTESPETYSQYTIEVRFQVANTADRDRAVFKNGGDDANFILLRFEDPQSDNENYKAHSLVQIVGRNRLYLNPSNSFKPNEWQHLALVCDGSNYRLYINGVDSGVLSIPTGATTFSDVNWFCLGDDSYSRWGNCKILMSEARIWSVVRSASQIQNNMTQVSPKSVGLEAYWRFNEGQGNVFEDATGKGHTLTTSATPTWIDGILSTDKSTEWK
glycan array binding signal (z-score) [1]: -0.234 | glycan array binding signal (z-score) [2]: -0.037 | glycan array binding signal (z-score) [3]: -0.122 | glycan array binding signal (z-score) (Gal(b1-4)GlcNAc6P): -0.07 | glycan array binding signal (z-score) (Gal(b1-6)Gal): -0.143 | glycan array binding signal (z-score) (Gal3S(b1-3)GalNAc): -0.264 | glycan array binding signal (z-score) (Gal3S(b1-3)GlcNAc): -0.137 | glycan array binding signal (z-score) [4]: -0.37 | glycan array binding signal (z-score) (Gal3S(b1-4)Glc): 0.001 | glycan array binding signal (z-score) (Gal3S(b1-4)Glc6S): -0.176 | glycan array binding signal (z-score) (Gal3S(b1-4)GlcNAc): -0.262 | glycan array binding signal (z-score) [5]: 0.122 | glycan array binding signal (z-score) [6]: -0.048 | glycan array binding signal (z-score) [7]: 0.203 | glycan array binding signal (z-score) (Gal3S4S(b1-4)GlcNAc): -0.075 | glycan array binding signal (z-score) (Gal3S6S(b1-4)GlcNAc): 0.506 | glycan array binding signal (z-score) (Gal3S6S(b1-4)GlcNAc6S): 0.124 | glycan array binding signal (z-score) (Gal4S(b1-4)GlcNAc): 0.045 | glycan array binding signal (z-score) (Gal4S6S(b1-4)GlcNAc): 0.875 | glycan array binding signal (z-score) (Gal6P(b1-4)GlcNAc): 0.046 | glycan array binding signal (z-score) (Gal6S(b1-3)GlcNAc): -0.216 | glycan array binding signal (z-score) (Gal6S(b1-3)GlcNAc6S): 0.293 | glycan array binding signal (z-score) (Gal6S(b1-4)Glc): -0.015

— the supplement of paper PMC8728848
